“And” between values parts separate entries of the source, which are not always exact repeats. Equal entries are not always repeated. This continues a long series; more values of the same kind are listed elsewhere.
Assay: xn = mol fraction of the nth substance listed

CC(C)=O + O
Details	viscosity
293.15 K, 101 kPa, x1 = 0.01	1.089 mPa·s
293.15 K, 101 kPa, x1 = 0.02	1.152 mPa·s
293.15 K, 101 kPa, x1 = 0.0251	1.199 mPa·s
293.15 K, 101 kPa, x1 = 0.04	1.306 mPa·s
293.15 K, 101 kPa, x1 = 0.0587	1.408 mPa·s
293.15 K, 101 kPa, x1 = 0.06	1.426 mPa·s
293.15 K, 101 kPa, x1 = 0.1	1.547 mPa·s
293.15 K, 101 kPa, x1 = 0.1463	1.583 mPa·s
293.15 K, 101 kPa, x1 = 0.1807	1.549 mPa·s
293.15 K, 101 kPa, x1 = 0.2525	1.378 mPa·s
293.15 K, 101 kPa, x1 = 0.3055	1.225 mPa·s
293.15 K, 101 kPa, x1 = 0.477	0.827 mPa·s
293.15 K, 101 kPa, x1 = 0.484	0.7762 mPa·s
293.15 K, 101 kPa, x1 = 0.582	0.6233 mPa·s
293.15 K, 101 kPa, x1 = 0.63	0.5528 mPa·s
293.15 K, 101 kPa, x1 = 0.775	0.4213 mPa·s
293.15 K, 101 kPa, x1 = 0.892	0.3534 mPa·s
293.15 K, 101 kPa, x1 = 0.901	0.3528 mPa·s
293.15 K, 101 kPa, x2 = 0.008	0.3207 mPa·s
298 K, 101.3 kPa, x1 = 0.033	1.092 mPa·s
298 K, 101.3 kPa, x1 = 0.072	1.272 mPa·s
298 K, 101.3 kPa, x1 = 0.12	1.358 mPa·s
298 K, 101.3 kPa, x1 = 0.17	1.345 mPa·s
298 K, 101.3 kPa, x1 = 0.24	1.228 mPa·s
298 K, 101.3 kPa, x1 = 0.32	1.036 mPa·s
298 K, 101.3 kPa, x1 = 0.42	0.814 mPa·s
298.15 K, 101 kPa, x1 = 0.01	0.962 mPa·s
298.15 K, 101 kPa, x1 = 0.02	1.012 mPa·s
298.15 K, 101 kPa, x1 = 0.0292	1.079 mPa·s
298.15 K, 101 kPa, x1 = 0.033	1.121 mPa·s
298.15 K, 101 kPa, x1 = 0.04	1.142 mPa·s
298.15 K, 101 kPa, x1 = 0.0499	1.216 mPa·s
298.15 K, 101 kPa, x1 = 0.0583	1.227 mPa·s
298.15 K, 101 kPa, x1 = 0.06	1.238 mPa·s
298.15 K, 101 kPa, x1 = 0.0702	1.298 mPa·s
298.15 K, 101 kPa, x1 = 0.072	1.29 mPa·s
298.15 K, 101 kPa, x1 = 0.0913	1.329 mPa·s
298.15 K, 101 kPa, x1 = 0.1	1.371 mPa·s and 1.342 mPa·s
298.15 K, 101 kPa, x1 = 0.1025	1.377 mPa·s
298.15 K, 101 kPa, x1 = 0.12	1.395 mPa·s and 1.336 mPa·s
298.15 K, 101 kPa, x1 = 0.1457	1.373 mPa·s
298.15 K, 101 kPa, x1 = 0.1499	1.398 mPa·s
298.15 K, 101 kPa, x1 = 0.17	1.325 mPa·s
298.15 K, 101 kPa, x1 = 0.1701	1.382 mPa·s
298.15 K, 101 kPa, x1 = 0.185	1.351 mPa·s
298.15 K, 101 kPa, x1 = 0.1999	1.339 mPa·s
298.15 K, 101 kPa, x1 = 0.2014	1.309 mPa·s
298.15 K, 101 kPa, x1 = 0.22	1.299 mPa·s
298.15 K, 101 kPa, x1 = 0.24	1.24 mPa·s
298.15 K, 101 kPa, x1 = 0.2499	1.235 mPa·s
298.15 K, 101 kPa, x1 = 0.2508	1.212 mPa·s
298.15 K, 101 kPa, x1 = 0.2701	1.186 mPa·s
298.15 K, 101 kPa, x1 = 0.3001	1.113 mPa·s
298.15 K, 101 kPa, x1 = 0.301	1.089 mPa·s
298.15 K, 101 kPa, x1 = 0.31	1.067 mPa·s
298.15 K, 101 kPa, x1 = 0.32	1.083 mPa·s
298.15 K, 101 kPa, x1 = 0.3499	0.9885 mPa·s
298.15 K, 101 kPa, x1 = 0.4	0.8757 mPa·s
298.15 K, 101 kPa, x1 = 0.42	0.8365 mPa·s
298.15 K, 101 kPa, x1 = 0.4502	0.7742 mPa·s
298.15 K, 101 kPa, x1 = 0.462	0.7527 mPa·s
298.15 K, 101 kPa, x1 = 0.465	0.737 mPa·s
298.15 K, 101 kPa, x1 = 0.5001	0.6861 mPa·s
298.15 K, 101 kPa, x1 = 0.535	0.626 mPa·s
298.15 K, 101 kPa, x1 = 0.538	0.6247 mPa·s
298.15 K, 101 kPa, x1 = 0.55	0.6261 mPa·s
298.15 K, 101 kPa, x1 = 0.6	0.5446 mPa·s
298.15 K, 101 kPa, x1 = 0.616	0.524 mPa·s and 0.5104 mPa·s
298.15 K, 101 kPa, x1 = 0.7	0.4407 mPa·s
298.15 K, 101 kPa, x1 = 0.729	0.424 mPa·s

Reference: the CheMixHub viscosity set
